According to PubChem BioAssay AID1345082 (National Center for Advancing Translational Sciences (NCATS), 2018):
In all, about 94,000 compounds went through this assay and about 4,000 (4.3%) were called active. Inconclusive means that the source gave no clear call. Such entries were picked first, then a sample of the others. Calls follow the shape of the dose curve; as a rule, active = well fitted inhibition curve with a large enough effect; inconclusive = small, poorly fitted or top-dose-only effect; inactive = no such curve, though single readings can be large or run the other way. Where the call is inconclusive, the potency comes from a doubtful curve fit.

Assay: Cytotoxic Profiling in NIH 3T3 Cell Line of Diverse Libraries Using Quantitative High-Throughput Screening; also: nearly all actives have a fitted effect of over 55% in size
Conditions: NIH 3T3 viability, CellTiter-Glo ATP luminescence, 48-72 h; activity change, negative = cytotoxicity: at 96.7 µM (top of the series) unless noted; series mostly up to 96.7 µM
In short: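 Cytotoxicity was measured by CellTiter-Glo ATP luminescence after 48 or 72 h compound exposure at 37 °C. Mouse NIH 3T3 fibroblasts were seeded at 400 cells/well and dosed by 23 nL pin transfer.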
% is scaled to controls: 0 for no effect and ±100 for the full control effect; potency is read from the fitted curve at half-maximal effect; tags tell the direction and shape of the fitted curve.

Q: For `O=C1NC(=NC2CCCCC2)C2(CCN(CC3CC3)CC2)N1c1cccnc1`, which Potency is on record?
A: inconclusive: 50.1 µM [inhibitor, partial curve, poor fit]

Q: For `CN(Cc1ccccc1C(F)(F)F)S(=O)(=O)NCc1ccccc1`, which Potency is on record?
A: inconclusive: 56.2 µM [inhibitor, partial curve, poor fit]

Q: Which Potency does the source give for `O=C1NCCCCCCN(Cc2ccncc2)[C@@H]2CN(Cc3ccc(O)cc3)CC[C@H]12` here?
A: inconclusive: 50.1 µM [inhibitor, partial curve, poor fit]

Q: Which Potency does the source give for `CC1=C[C@@H](CNC(=O)c2cccnc2)[C@H](C(C)C)C[C@H]1CC(=O)NC1CCCC1` here?
A: inconclusive: 79.4 µM [inhibitor, partial curve, poor fit]

Q: With `Cc1cnc(C(=O)N2CCc3ccc(S(=O)(=O)Nc4cccnc4)cc3C2)cn1` as the compound, how does the Potency read?
A: inconclusive: 79.4 µM [inhibitor, partial curve, poor fit]

Q: With `COc1ccc(CNC(=O)C2CCCCN2Cc2ccc(-c3cccs3)cc2)cc1` (stereo unspecified) as the compound, how does the Potency read?
A: inconclusive: 25.1 µM [inhibitor, full curve, poor fit]

Q: For `Cc1cnccc1CN(C)Cc1ccc2c(C)cc(=O)oc2c1`, which Potency is on record?
A: inconclusive: 44.7 µM [inhibitor, partial curve, poor fit]

Q: With `COc1ccc(C2(C(=O)N3CCC(Cc4ccccc4)CC3)CCOCC2)cc1` as the compound, how does the Potency read?
A: inconclusive: 70.8 µM [inhibitor, single point]

Q: Which Potency does the source give for `Cc1cc(-c2cc3c(cn2)N(C)CCN(C)C3)ccn1` here?
A: inconclusive: 112 µM [inhibitor, partial curve, poor fit]

Q: With `O=C(Nc1cc(F)cc(F)c1)N1CC(c2nnc(-c3ccncc3)o2)C2(CCOCC2)C1` (stereo unspecified) as the compound, how does the “activity change, negative = cytotoxicity” value read?
A: inactive: -7.63%

Q: Which “activity change, negative = cytotoxicity” value does the source give for `C[C@]1(O)CCN(C(=O)c2ccc3c(c2)OCC(=O)N3)C[C@@H]1O` here?
A: inactive: -10.6%

Q: Which Potency does the source give for `CN1Cc2ccc(N3CCOCC3)nc2C(C)(C(=O)NCCCn2ccnc2)C1` (stereo unspecified) here?
A: inconclusive: 112 µM [inhibitor, single point]

Q: For `Cc1ccc(C(=O)N(CC2CCN(Cc3ccccc3F)CC2)CC2CCCO2)s1` (stereo unspecified), which “activity change, negative = cytotoxicity” value is on record?
A: inactive: -25.3%

Q: For `COc1ccc(Nc2ncc(-c3cnn(C)c3)c3c2OCC3)cc1`, which Potency is on record?
A: inconclusive: 56.2 µM [inhibitor, partial curve, poor fit]

Q: Which Potency does the source give for `CC(=O)N1CCCC(N2C(=O)c3c(c(C)nn3-c3ccccc3)C2C(C)C)C1` (stereo unspecified) here?
A: inconclusive: 50.1 µM [inhibitor, partial curve, poor fit]

Q: With `C=CCN1C[C@@H]2C[C@@H](C(N)=O)N(C(=O)c3ccc(Cl)cc3)c3cccc(c32)C1=O` as the compound, how does the Potency read?
A: inconclusive: 31.6 µM [inhibitor, partial curve]
